Assay results as given in the antibiotic and cytotoxicity screens of Wong et al. (2023).
The other results are listed elsewhere or left out.

Key:
HSkMC = human skeletal muscle cells; assay: cytotoxicity call (relative viability < 0.9); conditions: 10 µM
HepG2 = assay: cytotoxicity call (relative viability < 0.9); conditions: 10 µM
S. aureus RN4220 = assay: growth inhibition call (relative growth <= 0.2); conditions: 50 µM

| SMILES | cytotoxicity call (HSkMC) | cytotoxicity call (HepG2) | growth inhibition call (S. aureus RN4220) |
| --- | --- | --- | --- |
| CC(C)NC(=O)Nc1ccc2c(c1)CC(=O)N([C@H](C)CO)C[C@@H](C)[C@@H](CN(C)C(=O)Nc1ccc3c(c1)OCO3)O2 | inactive | inactive | inactive |
| C[C@H]1CN([C@@H](C)CO)S(=O)(=O)c2ccc(C#Cc3ccncc3)cc2O[C@@H]1CN(C)S(=O)(=O)c1ccccc1 | inactive | active | inactive |
| C[C@H]1CN([C@@H](C)CO)C(=O)c2cccc(NC(=O)Nc3ccccc3)c2O[C@H]1CN(C)CC1CCCCC1 | inactive | inactive | inactive |
| Cc1noc(C)c1NC(=O)Nc1ccc2c(c1)C(=O)N([C@@H](C)CO)C[C@H](C)[C@@H](CN(C)Cc1ccc3c(c1)OCO3)OCCCC[C@@H](C)O2 | inactive | inactive | inactive |
| COCn1c(=O)[nH]c2ccccc21 | inactive | inactive | inactive |
| C=CCOC(=O)[C@@H]1[C@H]2C(=O)O[C@H](c3ccccc3)[C@H](c3ccccc3)N2[C@H](c2ccc(OCCOC(=O)[C@@H]3C[C@@H]4C(=O)N[C@@H](CC(C)C)C(=O)N4[C@@H]3c3ccc(O)cc3)cc2)[C@@]12C(=O)Nc1ccccc12 | inactive | inactive | inactive |
| COc1ccc(CN(C)C[C@@H]2OCCCC[C@H](C)Oc3ccc(NS(=O)(=O)c4ccccc4)cc3C(=O)N([C@@H](C)CO)C[C@@H]2C)cc1 | inactive | inactive | inactive |
| COc1cc2c(cc1-c1coc3c4c(c(OC)cc3c1=O)OC(C)(C)CC4)OCO2 | inactive | inactive | inactive |
| C[C@H](CO)N1C[C@H](C)[C@H](CN(C)C(=O)Nc2cccc(Cl)c2Cl)OCc2ccccc2-c2c(n(C)c3ccccc23)C1=O | inactive | inactive | inactive |
| CC(=O)NCCCS(=O)(=O)O | inactive | inactive | inactive |
| C[C@H](CO)N1C[C@H](C)[C@@H](CN(C)S(=O)(=O)c2cccs2)Oc2ccc(NS(=O)(=O)c3ccccc3)cc2CC1=O | inactive | inactive | inactive |
| C[C@@H]1CN([C@@H](C)CO)C(=O)c2cccc(NC(=O)Nc3cccc4ccccc34)c2O[C@H]1CN(C)C(=O)NC1CCCCC1 | inactive | inactive | inactive |
| Cc1ccc(S(=O)(=O)N(C)C[C@H]2OCCCC[C@H](C)Oc3ccc(NC(=O)Nc4c(C)noc4C)cc3C(=O)N([C@H](C)CO)C[C@@H]2C)cc1 | inactive | inactive | inactive |
| CC(C)NC(=O)Nc1cccc2c1O[C@@H](CN(C)S(=O)(=O)c1cccs1)[C@@H](C)CN([C@H](C)CO)C2=O | inactive | inactive | inactive |
| CCn1nnc2c1CCN(S(=O)(=O)c1cn(C)cn1)[C@@H]2COC | inactive | inactive | inactive |
| C[C@H]1CCCCO[C@H](CN(C)S(C)(=O)=O)[C@@H](C)CN([C@@H](C)CO)C(=O)c2cc(NC(=O)c3ccncc3)ccc2O1 | inactive | inactive | inactive |
| C[C@H](CO)N1C[C@H](C)[C@H](CN(C)S(=O)(=O)c2cccs2)Oc2ncc(-c3cccc(F)c3)cc2C1=O | inactive | inactive | inactive |
| C[C@@H]1CCCCO[C@@H](CN(C)C(=O)Nc2ccc(F)cc2)[C@H](C)CN([C@@H](C)CO)C(=O)c2cc(NC(=O)Nc3ccc(C(F)(F)F)cc3)ccc2O1 | inactive | inactive | inactive |
